The other results are listed elsewhere or left out. Repeats are few or missing, and single values can be far off.
What was measured:
Experiment in all cases: cell count relative to DMSO control; melanoma cells; higher = more viable cells
Details in all cases: library dose: low library concentration; 72 h
MZ2-MEL = tested on: MZ2-MEL
MeWo = tested on: MeWo
RPMI7951 = tested on: RPMI7951
RVH-421 = tested on: RVH-421
SkMel28 = tested on: SkMel28
SkMel2 = tested on: SkMel2
SkMel30 = tested on: SkMel30
SkMel5 = tested on: SkMel5
UACC257 = tested on: UACC257
UACC62 = tested on: UACC62
WM115 = tested on: WM115
WM1716 = tested on: WM1716
WM1745 = tested on: WM1745
WM3526 = tested on: WM3526
WM3619 = tested on: WM3619
WM451Lu = tested on: WM451Lu
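Further: cell number obtained by counting DAPI-stained nuclei in high-throughput microscope images with image analysis software, screen run in 1,536-well plates.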

Row | SMILES | cell count (MZ2-MEL) [%] | cell count (MeWo) [%] | cell count (RPMI7951) [%] | cell count (RVH-421) [%] | cell count (SkMel28) [%] | cell count (SkMel2) [%] | cell count (SkMel30) [%] | cell count (SkMel5) [%] | cell count (UACC257) [%] | cell count (UACC62) [%] | cell count (WM115) [%] | cell count (WM1716) [%] | cell count (WM1745) [%] | cell count (WM3526) [%] | cell count (WM3619) [%] | cell count (WM451Lu) [%]
1 | O=c1[nH]nc(Sc2ncc([N+](=O)[O-])s2)n1-c1ccc2c(c1)OCCO2 + O=C(CCCCCCC(=O)Nc1ccccc1)NO [vorinostat] (first compound 0.2 µM, partner dose 0.08 µM) | 111 | 100 | 105 | 86.9 | 104 | 113 | 104 | 99.7 | 92.5 | 83.1 | 106 | 102 | 108 | 104 | 106 | 99.6
2 | Cn1cncc1[C@@](N)(c1ccc(Cl)cc1)c1ccc2c(c1)c(-c1cccc(Cl)c1)cc(=O)n2C [tipifarnib] + CN(C)S(=O)(=O)c1ccc2c(c1)/C(=C/c1cc3c([nH]1)CCCC3)C(=O)N2 [SU6656] (first compound 0.01 µM, partner dose 0.4 µM) | 103 | 94.9 | 79.6 | 96.4 | 75.3 | 86.7 | 97.8 | 99.5 | 82.7 | 66.2 | 53 | 87.2 | 99.9 | 89.3 | 78.6 | 86
3 | Cn1cncc1[C@@](N)(c1ccc(Cl)cc1)c1ccc2c(c1)c(-c1cccc(Cl)c1)cc(=O)n2C [tipifarnib] + CN(NC(=O)CC(=O)NN(C)C(=S)c1ccccc1)C(=S)c1ccccc1 [STA4783] (first compound 0.01 µM, partner dose 0.006 µM) | 95.7 | 87.3 | 106 | 76.7 | 76.5 | 83.5 | 110 | 88.5 | 67.7 | 66.3 | 67.2 | 44.2 | 19.3 | 86.7 | 40.7 | 91.9
4 | O=c1[nH]nc(Sc2ncc([N+](=O)[O-])s2)n1-c1ccc2c(c1)OCCO2 + O=C(O)c1ccc(-c2c[nH]c3ncc(-c4ccccc4)cc23)cc1C1CCCC1 [GSK650394] (first compound 0.2 µM, partner dose 0.16 µM) | 105 | 98.3 | 124 | 99.8 | 95 | 103 | 107 | 100 | 81 | 102 | 93.3 | 111 | 95.1 | 101 | 84.5 | 100
5 | O=c1[nH]nc(Sc2ncc([N+](=O)[O-])s2)n1-c1ccc2c(c1)OCCO2 + O=C(Nc1cccc(Cl)c1)Nc1ncc(CCNc2ncnc3ccsc23)s1 [SNS314] (first compound 0.2 µM, partner dose 0.0008 µM) | 120 | 91.4 | 106 | 99.4 | 101 | 96.3 | 111 | 89.9 | 71.5 | 99.3 | 78.9 | 105 | 108 | 88.1 | 95.4 | 104
6 | C[C@@H]1CCN(C(=O)CC#N)C[C@@H]1N(C)c1ncnc2[nH]ccc12 + COc1cc2c(Oc3ccc4[nH]c(C)cc4c3F)ncnc2cc1OCCCN1CCCC1 [cediranib] (first compound 1 µM, partner dose 0.4 µM) | 101 | 97.5 | 107 | 105 | 120 | 95.9 | 72.9 | 101 | 92.5 | 82.9 | 120 | 97.9 | 75.4 | 28.6 | 98.6 | 89.9
7 | O=c1[nH]nc(Sc2ncc([N+](=O)[O-])s2)n1-c1ccc2c(c1)OCCO2 + OCCn1cc(-c2cnc3nnn(Cc4ccc5ncccc5c4)c3n2)cn1 [PF04217903] (first compound 0.2 µM, partner dose 1 µM) | 105 | 98.3 | 94.3 | 100 | 93.9 | 93.1 | 121 | 101 | 84 | 102 | 99.6 | 111 | 98.3 | 86.6 | 92.1 | 93
8 | CC1(C)NC(=O)N(c2ccc([N+](=O)[O-])c(C(F)(F)F)c2)C1=O [nilutamide] + NCC(=O)Nc1ccc(-n2nc(C(F)(F)F)cc2-c2ccc3c(ccc4ccccc43)c2)cc1 [OSU03012] (first compound 1 µM, partner dose 1 µM) | 97.3 | 50.9 | 91 | 102 | 87.5 | 70.7 | 51.4 | 95.2 | 78.8 | 87 | 92.7 | 107 | 103 | 56.6 | 91.3 | 46.2
9 | C[C@@H]1CCN(C(=O)CC#N)C[C@@H]1N(C)c1ncnc2[nH]ccc12 + CN(C)S(=O)(=O)c1ccc2c(c1)/C(=C/c1cc3c([nH]1)CCCC3)C(=O)N2 [SU6656] (first compound 1 µM, partner dose 0.4 µM) | 103 | 100 | 104 | 70.1 | 84.5 | 92.7 | 111 | 93.8 | 92.4 | 83.1 | 75.1 | 105 | 86.2 | 82.2 | 117 | 86.7
10 | COc1cc(Nc2ncc(F)c(Nc3ccc4c(n3)NC(=O)C(C)(C)O4)n2)cc(OC)c1OC [Tamatinib] + CC(C)(C)c1cnc(CSc2cnc(NC(=O)C3CCNCC3)s2)o1 [SNS-032] (first compound 0.4 µM, partner dose 0.01 µM) | 96.1 | 92.8 | 90.7 | 125 | 86.6 | 91.1 | 83.3 | 96.8 | 70.6 | 78.6 | 89.9 | 91.8 | 72.6 | 70.3 | 116 | 110
11 | CC1(C)NC(=O)N(c2ccc([N+](=O)[O-])c(C(F)(F)F)c2)C1=O [nilutamide] + O=C(O)c1ccc(-c2c[nH]c3ncc(-c4ccccc4)cc23)cc1C1CCCC1 [GSK650394] (first compound 1 µM, partner dose 0.16 µM) | 96.3 | 88.7 | 95.3 | 91.2 | 88.2 | 102 | 96.9 | 84.7 | 91.6 | 81.6 | 98.1 | 99.6 | 93.4 | 85.7 | 88.1 | 92.3
12 | COc1cc(Nc2ncc(F)c(Nc3ccc4c(n3)NC(=O)C(C)(C)O4)n2)cc(OC)c1OC [Tamatinib] + COc1cc2c(Oc3ccc4[nH]c(C)cc4c3F)ncnc2cc1OCCCN1CCCC1 [cediranib] (first compound 0.4 µM, partner dose 0.4 µM) | 91.4 | 90.8 | 76.1 | 96 | 83.4 | 106 | 72.1 | 75.2 | 62.8 | 65.1 | 91.4 | 91.4 | 80 | 93.5 | 93.2 | 87.2
13 | CC1(C)NC(=O)N(c2ccc([N+](=O)[O-])c(C(F)(F)F)c2)C1=O [nilutamide] + CN(NC(=O)CC(=O)NN(C)C(=S)c1ccccc1)C(=S)c1ccccc1 [STA4783] (first compound 1 µM, partner dose 0.006 µM) | 97.8 | 88 | 126 | 100 | 93.1 | 94.3 | 95 | 89.1 | 84.1 | 90.3 | 96.7 | 74.2 | 58.7 | 85.3 | 51 | 87.5
14 | O=C(Nc1cccc(Cl)c1)Nc1ncc(CCNc2ncnc3ccsc23)s1 + COc1cc2c(Oc3ccc4[nH]c(C)cc4c3F)ncnc2cc1OCCCN1CCCC1 [cediranib] (first compound 0.0008 µM, partner dose 0.4 µM) | 96.2 | 107 | 129 | 84.8 | 98.8 | 98.4 | 114 | 87 | 74.8 | 108 | 76.8 | 98 | 104 | 89.3 | 113 | 68.3
15 | O=c1[nH]nc(Sc2ncc([N+](=O)[O-])s2)n1-c1ccc2c(c1)OCCO2 + Cc1ccc(NC(=O)c2cccc(N(C)C)c2)cc1NC(=O)c1ccc(O)cc1 [ZM336372] (first compound 0.2 µM, partner dose 2 µM) | 77.3 | 92.2 | 87.8 | 84.3 | 86.7 | 104 | 77.3 | 88.6 | 96.4 | 89 | 105 | 111 | 96 | 98.7 | 83.7 | 115
16 | O=c1[nH]nc(Sc2ncc([N+](=O)[O-])s2)n1-c1ccc2c(c1)OCCO2 + CO[C@@H]1[C@H](N(C)C(=O)c2ccccc2)C[C@H]2O[C@]1(C)n1c3ccccc3c3c4c(c5c6ccccc6n2c5c31)C(=O)NC4 [Midostaurin] (first compound 0.2 µM, partner dose 0.08 µM) | 106 | 99.5 | 95.5 | 104 | 102 | 108 | 116 | 102 | 117 | 86.1 | 98.6 | 83 | 93.3 | 92.7 | 102 | 103
17 | O=c1[nH]nc(Sc2ncc([N+](=O)[O-])s2)n1-c1ccc2c(c1)OCCO2 + Cn1cc(/C=C2\C(=O)Nc3cccnc32)c2ccccc21 [GW441756] (first compound 0.2 µM, partner dose 0.4 µM) | 96.5 | 106 | 95.3 | 116 | 99.2 | 98.5 | 96.6 | 94.4 | 83.7 | 74.2 | 106 | 117 | 94.2 | 97.4 | 88.9 | 96.6
18 | O=c1[nH]nc(Sc2ncc([N+](=O)[O-])s2)n1-c1ccc2c(c1)OCCO2 + Cn1cncc1[C@@](N)(c1ccc(Cl)cc1)c1ccc2c(c1)c(-c1cccc(Cl)c1)cc(=O)n2C [tipifarnib] (first compound 0.2 µM, partner dose 0.01 µM) | 107 | 96.6 | 104 | 89.3 | 95.4 | 82 | 68.2 | 114 | 85 | 87.4 | 99.2 | 90.9 | 104 | 74.5 | 147 | 114

Source: the supplement of paper PMC4604168 (melanoma cell lines)
